The other results are listed elsewhere or left out.
test system: T1, C. trachomatis L2/434/Bu expressing GFP (CTL2-GFP); parameters: species or system HeLa; C. trachomatis total inclusion area by high-content imaging, normalised to DMSO; conditions: total inclusion area; 28.5 h, 10 µM; inhibitor
T1 construct: L2/434/Bu GFP intracellular growth in HeLa cells
Summary of the method: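 After bulk GFP and resorufin fluorescence reads, cells were fixed, stained with Hoechst and imaged by high-content microscopy. Inclusion area and number (GFP) stood in for chlamydial growth, nuclei count (Hoechst) for host cell viability. MICs were derived as for the bulk readout.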

Row | SMILES | % of control remaining
1 | Cc1nc(-c2ccccc2)sc1C(=O)C1=C(O)C(=O)N(CCN2CCOCC2)C1c1cccs1 (centres unmarked) [CBK266520] | 125.451
2 | c1ccc2c(CN3CCCNCC3)cccc2c1 [CBK028773] | 36.2979
3 | CN1CCN(C(=O)CN(c2cccc([N+](=O)[O-])c2)S(=O)(=O)c2ccccc2)CC1 [CBK264121] | 94.7712
4 | COc1ccc(CC(=O)N2CC=C(c3ccc(C)o3)CC2)cc1 [CBK283572] | 81.7392
5 | CCCN1C(=O)COc2ccc(-c3noc(-c4ccccn4)n3)cc21 [CBK288596] | 66.2267
6 | CCn1cc(C(=O)O)c(=O)c2cc(F)c(N3CCN(C(=S)NC(=O)c4c(-c5ccccc5)noc4C)CC3)cc21 [CBK267490] | 90.7203
7 | N#Cc1c(F)cccc1N1CCCC(C(=O)Nc2nncs2)C1 (centres unmarked) [CBK306335] | 51.7068
8 | CCCc1cc(CNC(=O)c2ccnn2C(C)C)on1 [CBK282047] | 130.249
9 | O=c1nc(CNc2ccc(Br)cc2)[nH][nH]1 [CBK288403] | 53.2609
10 | CCOC(=O)c1ccc(-c2ccc(/C=N/N=C3\NC(=O)C(CC(=O)O)S3)o2)cc1 (centres unmarked) [CBK264474] | 105.588
11 | Nn1c(SCCCCSc2nnc(C(F)(F)F)n2N)nnc1C(F)(F)F [CBK267946] | 109.07
12 | O=C(OCc1ccccc1)N1CCN(c2ccccc2)CC1 [CBK200241] | 79.1582
13 | Cc1ccc(NS(=O)(=O)c2ccc(OC(F)(F)F)cc2)c(CO)c1 [CBK043267] | 97.4273
14 | O=c1c(N2CCCNCC2)nccn1CCOc1ccc(Oc2ccccc2)cc1 [CBK028615T] | 109.981
15 | CC(C)Oc1ncccc1OCc1ccccc1 [CBK001457] | 123.77
16 | O=C(Nc1cccc(C(=O)O)c1)/C(=C\c1ccco1)NC(=O)c1ccc(Br)cc1 [CBK263707] | 97.1417
17 | CCOC(=O)NC(Nn1cnnc1)(C(F)(F)F)C(F)(F)F [CBK261344] | 91.507
18 | CC1(C)Cc2ccccc2C(NC(Cc2ccccc2)C(=O)O)=N1 (centres unmarked) [CBK262533] | 99.0084
19 | CC(=O)C1=C(O)C(=O)N(CCN2CCNCC2)C1c1cccc([N+](=O)[O-])c1 (centres unmarked) [CBK263320] | 81.3597
20 | Cc1ccc(N(C(C)C(=O)Nc2ccccc2-c2ccccc2)S(C)(=O)=O)cc1 (centres unmarked) [CBK267889] | 101.355
21 | O=C(O)C1CCCCC1C(=O)NCCCCc1ccccc1 (centres unmarked) [CBK287205] | 84.591
22 | CC(C)(C)OC(=O)N1CCN(c2cncc(NCc3ccccc3)n2)CC1 [CBK000154] | 102.148
23 | OC1(Cn2ccc3ncccc32)CCN(CC2CC=CCC2)CC1 (centres unmarked) [CBK284782] | 96.487
24 | CCCC/C=C/c1nccnc1NCc1ccc(C(F)(F)F)cc1 [CBK038077] | 105.693
25 | COc1ccccc1/C=C1/S/C(=N/Cc2ccccc2)N(Cc2ccccc2)C1=O [CBK262234] | 102.032

Row | SMILES | % of control remaining
26 | COc1cc(OC)c(OC)cc1CN1CCN(S(=O)(=O)c2ccc(C)cc2)CC1 [CBK263323] | 65.8902
27 | Cc1nc2ccccn2c1CC(=O)N1CCCC(c2ccc(Cc3cccc(F)c3)cn2)C1 (centres unmarked) [CBK286002] | 84.7212
28 | O=CN1CCN(S(=O)(=O)c2ccc3c(c2)Cc2cc(S(=O)(=O)N4CCN(C=O)CC4)ccc2-3)CC1 [CBK264351] | 119.177
29 | Cn1ccnc1CCC1CCCCN1C(=O)NCc1cccc(F)c1 (centres unmarked) [CBK307124] | 24.7068
30 | COc1ccc(-c2cnc(N)c(-c3ccc(C(=O)NCCO)cc3)n2)cn1 [CBK064147] | 108.626
31 | Cn1c2ccc(Br)cc2c2nnc(SCC(=O)N3c4ccccc4Sc4ccccc43)nc21 [CBK263900] | 118.955
32 | CC(C)[C@@H]1C[C@H](C(F)(F)F)n2nc(C3CCCNC3)cc2N1 (some centres unmarked) [CBK283056] | 107.31
33 | COc1ccc(C)cc1-n1ccc(C(=O)NC2(C#N)CCSC2)n1 (centres unmarked) [CBK304943] | 38.6679
34 | Cc1cc(NS(=O)(=O)c2cccc([N+](=O)[O-])c2)n(C)n1 [CBK067243] | 97.2918
35 | Cn1nc(-c2ccccc2)cc1[C@H]1CN2CC[C@H]1C[C@@H]2CNS(C)(=O)=O [CBK289096] | 90.8491
36 | COc1cccc(C2CC(=O)Nc3c2c(=O)nc(SC)n3C)c1 (centres unmarked) [CBK307546] | 81.9696
37 | Cc1ccc(-n2ncc3c(=O)n(CC(=O)Nc4cccc(C)c4)cnc32)cc1 [CBK287533] | 100.879
38 | Cc1nn(CC(=O)OC(C)C)c(=O)c2cc3sccc3n12 [CBK284022] | 90.9123
39 | CN1CCN(c2ccc(-c3cnc4[nH]c(=O)n(C5CC5)c4n3)cc2)CC1 [CBK064899] | 91.2083
40 | CC(C)Nc1cc(Sc2cccc(C(=O)O)c2)ncn1 [CBK093583] | 83.4272
41 | Cc1c(C(=O)N(C)Cc2nc3ccccc3s2)nnn1C1CCNCC1 [CBK306501C] | 27.619
42 | Cn1c(NC(=O)COc2ccccc2)nc2ccccc21 [CBK269783] | 95.5965
43 | N#CCCN(CC1CCCO1)S(=O)(=O)c1ccc(OC(F)(F)F)cc1 (centres unmarked) [CBK044405] | 88.4773
44 | O=C(O)c1cccc(/N=C/c2ccc(/C=N/c3cccc(C(=O)O)c3)cc2)c1 [CBK261088] | 96.6327
45 | CCOC(=O)c1[nH]c2ccccc2c1NC(=O)CN1C(=O)CSC1=O [CBK160163] | 91.802
46 | COc1ccc(-c2nc(NC(=O)Cc3ccc(N(C)C)cc3)cnc2-c2ccc(F)cc2)cn1 [CBK037582] | 84.2214
47 | O=C(O)CSc1ccccc1[N+](=O)[O-] [CBK111324] | 92.4743
48 | COc1ccc(NC(=O)CSc2nsc(SCC(=O)Nc3ccc(OC)cc3)n2)cc1 [CBK008918] | 95.4606
49 | COc1cccc(CCN2CCC(C(=O)NC(c3ccc(F)cc3)c3nc(OC)cc(OC)n3)CC2)c1 (centres unmarked) [CBK148089] | 100.024
50 | Cc1ccc(OCc2occc2C(=O)N2CCCCC(N)C2)cc1 (centres unmarked) [CBK306840] | 79.1637

Reference: PMC12040169 (PLOS Biology, 2025)
